Some of the results follow.

First the molecules themselves.
B1: chr7:27100353:27100725:-|three_prime_utr|ENSG00000105996|control|control|control (ssRNA)
RNA: GGGAGUUCUACAGUCCGACGAUCUUUUUUAUUUUCUUCUUGACCUACCCCUUCCCUCCUUUAAGUGUUGAGGAUUUUCUGUUUAGUGAUUCCCUGACCCAGUUUCAAACAGAGCCAUCUUUUACAGAUUAUUUUGGAGUUUUACAACAGAGGAUUGAGCAUCA
B2: chr15:44524374:44524475:+|3pUTR|ENSG00000137770|msi1|FALSE|unique (ssRNA)
RNA: GGGAGUUCUACAGUCCGACGAUCUAUCUAUCUCAGAUCGAAUACAUAUAGUAGGUAGGCUAAAACAGAAGAGUCUUUAGAACUAGUGCAACUCCAGUGAAAUUUUUUAUGUACAGGACAUCUGCAGUUUAUAAAGAAUUCUGUCAACAGAGGAUUGAGCAUCA
B3: ENSG00000124766:be:win_2051|3pUTR|ENSG00000124766|bound_else_gene|NA|bound_elsewhere_windowed (ssRNA)
RNA: GGGAGUUCUACAGUCCGACGAUCACGCAGGCGAAUUCCCGUUUGGGGCUUUUUUUUCCUCCCUCUUUUCCCCUUGCCCCCUCUGCAGCCGGAGGAGGAGAUGUUGAGGGGAGGAGGCCAGCCAGUGUGACCGGCGCUAGGAAACAACAGAGGAUUGAGCAUCA
B4: chr11:72288215:72288316:-|3pUTR|ENSG00000162129|unk|FALSE|unique (ssRNA)
RNA: GGGAGUUCUACAGUCCGACGAUCACCCAGCUAAUUUUUUUUGUAUUUUUAGUAAAGACGGGGUUUCACCAUGUUUGCCAGGCUAGUCUCAAACUCCUGGUCUCAAGUGAUCCACCCACCUUGGCCUCCCAGAGUGCUGAGAUUCAACAGAGGAUUGAGCAUCA
B5: chr11:118750849:118750950:-|3pUTR|ENSG00000110367|msi1|total|mutant (ssRNA)
RNA: GGGAGUUCUACAGUCCGACGAUCAUUCCCGAAAGUACUUUGGCCUCGUGCUGCCGAGAGCAGAUUUCUAUGGUACCCUGUGUCCGUAAAGGGGCCCAGAAAUCUGGGAUGUACUGUUUGCUGCCACACUGUCUCAUCCCGUACCAACAGAGGAUUGAGCAUCA
B6: chr15:40213340:40213445:+|CDS|ENSG00000156970|unk|FALSE|unique (ssRNA)
RNA: GGGAGUUCUACAGUCCGACGAUCACACAGUGAAUAUAUUACCCAUGAAAUAACAGUGUUGAUUAUUUAUAACCUUUUGACAAUAGUGGAGAUGCUACACAAAGCAGAAAUAGUCCAUGGUGACUUGAGUCCAAGGUGUCUGAUCAACAGAGGAUUGAGCAUCA
B7: chr3:120396629:120396730:-|3pUTR|ENSG00000163430|msi1|FALSE|unique (ssRNA)
RNA: GGGAGUUCUACAGUCCGACGAUCGCCUUCAUUUCUAGGAGUGCUUUAAGAGAAACUGUAAAUGGUGCUCUGGGGCUGGAGGCUAGUAAGGAAACUGCAUCACGAUUGAAAGAGGAACAGACCCAAAUCUGAACCUCUUUUGAGCAACAGAGGAUUGAGCAUCA
B8: ENSG00000122008:stop:overlap|stop_codon|ENSG00000122008|stop_codon|NA|stop_codon (ssRNA)
RNA: GGGAGUUCUACAGUCCGACGAUCGAGCAUUAUUGGCUUUUUACAGGCUGGAAACCAAGCCCUGUCAGCCACUGAGUGUACAUUAGAGAAAACUGACAAAGAUAAGUUUGUAAAACCUCUAGAAAUGUCUCAUAAGAAGAGUUUCAACAGAGGAUUGAGCAUCA
B9: ENSG00000124766:be:win_1701|3pUTR|ENSG00000124766|bound_else_gene|NA|bound_elsewhere_windowed (ssRNA)
RNA: GGGAGUUCUACAGUCCGACGAUCCUGUGAUUGUUGUUAUUGAUGUUGUUGUUGAUGGCAAAAAAAAAAAAGCGACUUCGAGUUUGCUCCCCUUUGCUUGAAGAGACCCCCUCCCCCUUCCAACGAGCUUCCGGACUUGUCUGCCAACAGAGGAUUGAGCAUCA
B10: chr6:11183581:11183682:-|3pUTR|ENSG00000111859|msi1|total|mutant (ssRNA)
RNA: GGGAGUUCUACAGUCCGACGAUCAAAACAAGAAUGCAUGAUCUCAGAGUGAUUAAAAAAAAAUCAGUGGAAAUAAAUGAUCACCGAAGGUGCUUUUCAAAACAACUGCUAUUAUAAUUCUCAAAGUCCUACUCUGCCAAAAGACAACAGAGGAUUGAGCAUCA
B11: chr12:24811411:24811512:-|3pUTR|ENSG00000060982|msi1|total|mutant (ssRNA)
RNA: GGGAGUUCUACAGUCCGACGAUCGUGAAGAACUCUAUAUUUGUAUGUUGAGAGGGCAUGGAAUAAUUGUAUUUUGCUGGCAACCGACACAUUCUUUAUUAUUUGCAGAUUCCUCAUCAAAUCUGUAAUUAUGCACAGUUUCUGCAACAGAGGAUUGAGCAUCA
B12: chr12:109850944:109852737:-|three_prime_utr|ENSG00000139433|control|control|control (ssRNA)
RNA: GGGAGUUCUACAGUCCGACGAUCGCUCUCCAAGGGGCAGAAUGUUACGGAGGAGGAGUGCCUGGAGAAGAUCCGCCUCUUCCUAGUCAACUACACGGCGACCAUCGAUGUCAUCUACGAGAUGUACACCCAGAUGAACGCUGACAACAGAGGAUUGAGCAUCA
B13: chr21:42918526:42919006:-|CDS|ENSG00000233056|control|control|control (ssRNA)
RNA: GGGAGUUCUACAGUCCGACGAUCAAUUGGACAAUGGGGAGUAAACACUCAGGUGCUUGAGGACAUAAAGAGAGAACAGAUUAUAGCCAAAGCCAAAGCCUCAAAACCAACAACUCCCCCUGAAAAUCGCCCGCGGCAUUUCCACAACAGAGGAUUGAGCAUCA
B14: ENSG00000144824:stop:overlap|stop_codon|ENSG00000144824|stop_codon|NA|stop_codon (ssRNA)
RNA: GGGAGUUCUACAGUCCGACGAUCUGCGGAUCUGGAUGGAUGUUAUAGUUACGGGGGCAGAAGGUUACACUCACUUCUUGUUGUAGUGAACUGAGGCAACAGUCCACUUCAGGGCAGACGGCAAUAAUCUCUUACAAGAAUGAACAACAGAGGAUUGAGCAUCA

This test concerns the target MSI1 full-length (mouse, UniProt Q61474 1-362). Nature of the test: nsRBNS (natural sequence RNA bind-n-seq); RBNS binding buffer (assumed for nsRBNS): 25 mM Tris pH 7.5, 150 mM KCl, 3 mM MgCl2, 0.01% Triton X-100, 500 ug/ml BSA, 20 U/ml SUPERase-In, 4 C; UNK is unkempt and MSI1 is Musashi-1; names of the RNAs are library labels; protein concentration not given here; high values mean tight binding.
UniProt Q61474, sequence (Q61474 whole entry): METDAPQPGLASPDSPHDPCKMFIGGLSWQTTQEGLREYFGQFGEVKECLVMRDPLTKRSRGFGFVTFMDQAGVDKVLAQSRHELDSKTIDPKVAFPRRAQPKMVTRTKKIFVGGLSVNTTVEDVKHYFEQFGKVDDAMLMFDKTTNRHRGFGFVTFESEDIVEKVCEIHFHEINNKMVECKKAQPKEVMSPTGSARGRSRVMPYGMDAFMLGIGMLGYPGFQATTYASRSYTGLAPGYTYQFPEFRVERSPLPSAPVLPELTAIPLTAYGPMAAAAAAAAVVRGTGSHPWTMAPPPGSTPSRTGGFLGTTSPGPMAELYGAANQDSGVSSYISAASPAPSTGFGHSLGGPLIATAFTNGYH
As for B1, the binding signal was 0.878 enrichment R. Then B2, with 14.9 enrichment R; and B3, with 0.368 enrichment R; and B4, with 1.88 enrichment R. Then B5, with 0.539 enrichment R; and B6, with 2.09 enrichment R. Then B7, with 0.366 enrichment R. With B8, the binding signal is 0.332 enrichment R.

B9 yielded a binding signal of 0.457 enrichment R.

B10 gave a binding signal of 0.317 enrichment R. B11 displayed a binding signal of 0.667 enrichment R. The figure for B12 is 0.314 enrichment R; for B13 it is 4.2 enrichment R; for B14 it is 0.781 enrichment R.

Values taken from paper PMC12136788.
